Measured values reported in publication PMC5021524.
Results are given in words; binding and its absence hold for the method and conditions named. For some of these results: Binding seen in cells or lysates may run through a third protein. Some entries that bind do so weakly or less than the wild type. Tags and fused reporters may be left off the sequences shown. One block for each binder: values may come before it.

Tests used:
[1] = target: T1, His6-cytLnp-C-HA (Xenopus) (UniProt Q6DFJ8); test: pull-down; Xenopus light membranes incubated with 5 µM His6-cytLnp/N1/N2/C-HA, solubilized with 1% Triton X-100 in 20 mM HEPES pH 7.5, 50 mM KCl; HA agarose resin 2 hrs at 4°C; immunoblot with Xenopus Lnp antibodies; only the target purified
T1 sequence: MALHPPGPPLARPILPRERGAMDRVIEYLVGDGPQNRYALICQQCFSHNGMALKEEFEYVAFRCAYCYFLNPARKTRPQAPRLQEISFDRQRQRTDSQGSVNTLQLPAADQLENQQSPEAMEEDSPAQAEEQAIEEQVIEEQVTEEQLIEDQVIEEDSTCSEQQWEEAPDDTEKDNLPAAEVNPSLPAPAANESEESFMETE

His6-cytLnp-HA (Xenopus) [2] = target: T2, His6-cytLnp-HA (Xenopus) (UniProt Q6DFJ8); test: as above
T2 sequence: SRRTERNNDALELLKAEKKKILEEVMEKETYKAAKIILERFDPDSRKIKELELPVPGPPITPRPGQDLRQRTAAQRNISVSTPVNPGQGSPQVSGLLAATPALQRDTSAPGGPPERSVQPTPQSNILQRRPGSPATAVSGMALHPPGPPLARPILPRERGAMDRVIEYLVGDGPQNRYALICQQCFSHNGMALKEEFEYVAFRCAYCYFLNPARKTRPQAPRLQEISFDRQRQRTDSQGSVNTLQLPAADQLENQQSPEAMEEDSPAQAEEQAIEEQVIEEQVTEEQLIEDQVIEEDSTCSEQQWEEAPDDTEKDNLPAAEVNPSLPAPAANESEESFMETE

[3] = target: T3, His6-cytLnp-N1-HA (Xenopus) (UniProt Q6DFJ8); test: as above
T3 sequence: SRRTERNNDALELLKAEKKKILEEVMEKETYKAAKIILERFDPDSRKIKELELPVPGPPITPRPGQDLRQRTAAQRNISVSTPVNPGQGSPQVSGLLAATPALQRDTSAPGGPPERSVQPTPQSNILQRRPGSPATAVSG

[4] = target: T4, His6-cytLnp-N2-HA (Xenopus) (UniProt Q6DFJ8); test: as above
T4 sequence: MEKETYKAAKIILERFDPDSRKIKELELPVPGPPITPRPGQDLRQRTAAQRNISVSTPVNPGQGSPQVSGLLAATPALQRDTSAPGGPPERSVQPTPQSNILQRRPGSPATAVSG

His6-cytLnp-C (Xenopus) = His6-cytLnp-C (Xenopus) (UniProt Q6DFJ8); test: SEC; 400 µg of purified protein in 200 µL on a Superdex 200 column in 20 mM HEPES pH 7.5, 150 mM KCl, 1 mM DTT; both purified
His6-cytLnp-N2 (Xenopus) = His6-cytLnp-N2 (Xenopus) (UniProt Q6DFJ8); test: as above
His6-cytLnp-N1 (Xenopus) = His6-cytLnp-N1 (Xenopus) (UniProt Q6DFJ8); test: as above
His6-cytLnp (Xenopus) = His6-cytLnp (Xenopus) (UniProt Q6DFJ8); test: as above
[5] = target: T1, His6-cytLnp-C-HA (Xenopus); test: pull-down; purified prey (His6-cytLnp, or Sumo-cytLnp / Sumo-cytLnp-E) mixed at a 5:1 ratio with HA-tagged bait for 1 hr at 4°C in 20 mM HEPES pH 7.5, 100 mM KCl, 0.05% TX-100; HA agarose resin; SDS-PAGE and Coomassie blue staining; both purified
[6] = target: T3, His6-cytLnp-N1-HA (Xenopus); test: as above
[7] = target: T4, His6-cytLnp-N2-HA (Xenopus); test: as above
[8] = target: T5, His6-cytLnp-SBP (Xenopus) (UniProt Q6DFJ8); test: pull-down; purified His6-cytLnp and His6-cytLnp-SBP (3:1) incubated in Xenopus interphase cytosol with an energy regenerating system, without or with cyclin B∆90 (mitotic), 1 hr at room temperature; magnetic streptavidin resin 1 hr at 4°C in 20 mM HEPES pH 7.5, 100 mM KCl, 0.05% TX-100 with phosphatase inhibitors; eluted with biotin; Coomassie blue staining; both purified
T5 sequence: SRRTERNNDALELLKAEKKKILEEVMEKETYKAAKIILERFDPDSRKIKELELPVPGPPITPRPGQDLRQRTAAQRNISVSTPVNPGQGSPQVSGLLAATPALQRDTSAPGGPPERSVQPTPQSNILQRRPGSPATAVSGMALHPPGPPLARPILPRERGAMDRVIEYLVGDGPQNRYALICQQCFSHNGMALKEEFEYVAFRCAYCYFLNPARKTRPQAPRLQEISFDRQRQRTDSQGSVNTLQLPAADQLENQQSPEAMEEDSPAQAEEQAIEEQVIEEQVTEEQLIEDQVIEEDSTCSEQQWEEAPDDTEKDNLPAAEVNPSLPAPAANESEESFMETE

His6-cytLnp-HA (Xenopus) [9] = target: T2, His6-cytLnp-HA (Xenopus); test: pull-down; purified prey (His6-cytLnp, or Sumo-cytLnp / Sumo-cytLnp-E) mixed at a 5:1 ratio with HA-tagged bait for 1 hr at 4°C in 20 mM HEPES pH 7.5, 100 mM KCl, 0.05% TX-100; HA agarose resin; SDS-PAGE and Coomassie blue staining; both purified

B2: His6-cytLnp-C (domain or fragment, UniProt Q6DFJ8 239-440)
chain: MALHPPGPPLARPILPRERGAMDRVIEYLVGDGPQNRYALICQQCFSHNGMALKEEFEYVAFRCAYCYFLNPARKTRPQAPRLQEISFDRQRQRTDSQGSVNTLQLPAADQLENQQSPEAMEEDSPAQAEEQAIEEQVIEEQVTEEQLIEDQVIEEDSTCSEQQWEEAPDDTEKDNLPAAEVNPSLPAPAANESEESFMETE
binding (His6-cytLnp-C (Xenopus)): binds

B4: His6-cytLnp-N1 (domain or fragment, UniProt Q6DFJ8 99-238)
chain: SRRTERNNDALELLKAEKKKILEEVMEKETYKAAKIILERFDPDSRKIKELELPVPGPPITPRPGQDLRQRTAAQRNISVSTPVNPGQGSPQVSGLLAATPALQRDTSAPGGPPERSVQPTPQSNILQRRPGSPATAVSG
binding (His6-cytLnp-N1 (Xenopus)): no binding (tested: 400 µg in 200 µL)

B5: His6-cytLnp (domain or fragment, UniProt Q6DFJ8 99-440)
chain: SRRTERNNDALELLKAEKKKILEEVMEKETYKAAKIILERFDPDSRKIKELELPVPGPPITPRPGQDLRQRTAAQRNISVSTPVNPGQGSPQVSGLLAATPALQRDTSAPGGPPERSVQPTPQSNILQRRPGSPATAVSGMALHPPGPPLARPILPRERGAMDRVIEYLVGDGPQNRYALICQQCFSHNGMALKEEFEYVAFRCAYCYFLNPARKTRPQAPRLQEISFDRQRQRTDSQGSVNTLQLPAADQLENQQSPEAMEEDSPAQAEEQAIEEQVIEEQVTEEQLIEDQVIEEDSTCSEQQWEEAPDDTEKDNLPAAEVNPSLPAPAANESEESFMETE
binding (His6-cytLnp (Xenopus)): binds
binding [5]: binds
binding [6]: no binding
binding [7]: no binding
binding [8]: binds

Continued, values first:

binding [1]: binds
binding (His6-cytLnp-HA (Xenopus) [2]): binds
binding [3]: no binding (tested: 5 µM)
binding [4]: no binding (tested: 5 µM)
B1: endogenous Xenopus egg Lnp (protein, UniProt Q6DFJ8 1-440)
chain: MGALLAKWRAKPSTVEVLEKMEKDIQSLEEFRDKNQKLRKIWVARLFFYSTILYILTSLTVYLWYLPGGMTARLLTTLLFLLFPVLIWFVRTLLILWFSRRTERNNDALELLKAEKKKILEEVMEKETYKAAKIILERFDPDSRKIKELELPVPGPPITPRPGQDLRQRTAAQRNISVSTPVNPGQGSPQVSGLLAATPALQRDTSAPGGPPERSVQPTPQSNILQRRPGSPATAVSGMALHPPGPPLARPILPRERGAMDRVIEYLVGDGPQNRYALICQQCFSHNGMALKEEFEYVAFRCAYCYFLNPARKTRPQAPRLQEISFDRQRQRTDSQGSVNTLQLPAADQLENQQSPEAMEEDSPAQAEEQAIEEQVIEEQVTEEQLIEDQVIEEDSTCSEQQWEEAPDDTEKDNLPAAEVNPSLPAPAANESEESFMETE

binding (His6-cytLnp-N2 (Xenopus)): no binding (tested: 400 µg in 200 µL)
B3: His6-cytLnp-N2 (domain or fragment, UniProt Q6DFJ8 124-238)
chain: MEKETYKAAKIILERFDPDSRKIKELELPVPGPPITPRPGQDLRQRTAAQRNISVSTPVNPGQGSPQVSGLLAATPALQRDTSAPGGPPERSVQPTPQSNILQRRPGSPATAVSG

binding (His6-cytLnp-HA (Xenopus) [9]): binds
B6: Sumo-cytLnp (domain or fragment, UniProt Q6DFJ8 99-440)
chain: SRRTERNNDALELLKAEKKKILEEVMEKETYKAAKIILERFDPDSRKIKELELPVPGPPITPRPGQDLRQRTAAQRNISVSTPVNPGQGSPQVSGLLAATPALQRDTSAPGGPPERSVQPTPQSNILQRRPGSPATAVSGMALHPPGPPLARPILPRERGAMDRVIEYLVGDGPQNRYALICQQCFSHNGMALKEEFEYVAFRCAYCYFLNPARKTRPQAPRLQEISFDRQRQRTDSQGSVNTLQLPAADQLENQQSPEAMEEDSPAQAEEQAIEEQVIEEQVTEEQLIEDQVIEEDSTCSEQQWEEAPDDTEKDNLPAAEVNPSLPAPAANESEESFMETE
